According to article PMC6919601, “Identification of Plasmodium dipeptidyl aminopeptidase allosteric inhibitors by high throughput screening” (PLoS ONE, 2019):
Among all 110,000 compounds or so, about 230 (0.21%) showed an effect of 50% or more. Some of the results follow.

Biological target: DPAP1 (Plasmodium falciparum, UniProt Q8IIJ9)
Assay: primary screen, percent inhibition; read by cleavage of a fluorogenic dipeptide substrate; higher = more effect of the substance
Design: species or system P. falciparum D10 trophozoite lysates; single well
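Also: 30 min substrate incubation versus DMSO and 10 µM JCP410 controls.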

DPAP1, sequence (Q8IIJ9 whole entry, looked up): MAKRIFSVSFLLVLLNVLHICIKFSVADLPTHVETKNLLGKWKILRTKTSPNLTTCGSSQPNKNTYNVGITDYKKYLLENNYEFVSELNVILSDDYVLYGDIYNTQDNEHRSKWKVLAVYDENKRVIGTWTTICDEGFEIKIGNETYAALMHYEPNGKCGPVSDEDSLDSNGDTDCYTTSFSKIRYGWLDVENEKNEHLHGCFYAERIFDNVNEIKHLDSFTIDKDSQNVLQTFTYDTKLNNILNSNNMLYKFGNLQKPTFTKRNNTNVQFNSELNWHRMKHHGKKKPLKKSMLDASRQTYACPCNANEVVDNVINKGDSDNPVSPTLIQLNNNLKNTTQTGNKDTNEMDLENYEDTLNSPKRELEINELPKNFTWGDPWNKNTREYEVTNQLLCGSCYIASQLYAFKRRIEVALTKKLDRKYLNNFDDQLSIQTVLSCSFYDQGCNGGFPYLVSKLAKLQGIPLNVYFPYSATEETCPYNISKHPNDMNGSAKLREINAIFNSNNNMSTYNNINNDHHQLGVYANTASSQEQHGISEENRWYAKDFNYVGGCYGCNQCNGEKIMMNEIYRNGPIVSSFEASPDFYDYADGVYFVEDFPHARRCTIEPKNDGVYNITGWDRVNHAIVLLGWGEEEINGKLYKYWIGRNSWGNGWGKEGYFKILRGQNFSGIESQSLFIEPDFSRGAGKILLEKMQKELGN

| Compound | % Inhibition @ 10 uM |
| --- | --- |
| Cc1ccc(C(=O)c2sc3nc4c(cc3c2N)CCC4)cc1 | 0.76% |
| CCOC(=O)C1CCN(C/C=C(\C)CCC=C(C)C)CC1 | 1.42% |
| CCNC(=O)c1c(NC(=O)c2ccccc2Cl)sc2c1CCCC2 | -3.53% |
| CCOCC(=O)Nc1ccc2ccccc2c1 | 0.795% |
| Cc1ccc(S(=O)(=O)NC(C(=O)N2CCCCC2)C(C)C)cc1 (stereo not shown) | -4.02% |
| CN1CCCN(Cc2ccccc2Br)CC1 | 1.4% |
| Oc1ccc(C2=NN(c3ccccc3)C(C=C(Cl)Cl)C2)cc1 (stereo not shown) | -1.76% |
| O=C(Nc1ccc(-c2ccccc2)cc1)c1ccccc1Br | -3.79% |
| COCCC/N=c1/c(-c2ccccc2)c(O)c1=O | -2.87% |
| COc1ccc(-c2c3c(=O)n(C)c(=O)n(C)c3c3c(COc4ccccc4)nc4ccccc4n23)cc1 | -1.43% |
| COc1cc(NC(=O)/C=C/c2ccc(C(C)C)cc2)c(OC)cc1Cl | -3.77% |
| COc1ccc(C(=O)Nc2cccc(C(C)=O)c2)cc1 | -0.641% |
| CCOC(=O)c1c(NC(=O)C(C)Oc2ccc(OC)cc2)sc2c1CCC(C)C2 (stereo not shown) | 1.26% |
| CCN(CC)c1ccc(NC(=O)c2cccc(OC(F)F)c2)cc1 | -1.22% |
| Cc1cc2nn(-c3ccccc3)nc2cc1N | 4.08% |
| Cc1cccc(Oc2nc3ccccn3c(=O)c2/C=C(\C#N)C(=O)NCc2ccccc2)c1C | 0.315% |
| CC(NC(=O)CCn1nc(-c2ccc(Cl)cc2)ccc1=O)c1ccccc1 (stereo not shown) | 3.04% |
| COc1cc(CN2CCN(Cc3cc(OC)c4c(c3)OCO4)CC2)cc2c1OCO2 | -13% |
| O=C(C1=C(O)C(=O)N(Cc2ccco2)C1c1ccc(O)cc1)c1cc2ccccc2o1 (stereo not shown) | 2.87% |
| CN1CCN(C(=O)CN2Cc3ccccc3C2=O)CC1 | -2.69% |
| CCn1ncc(C(=O)Nc2ccc(C)cc2Br)c1C | 9.83% |
| Cc1c(Cl)cccc1N(CC(=O)NCc1ccccc1)S(=O)(=O)c1ccccc1 | -0.0947% |
| COc1ccc(C(=S)Nc2ccccc2)cc1 | 1.92% |
| Cc1ccc2c(c1)C(O)(C1COC(C)(C)CC1=O)C(=O)N2 (stereo not shown) | -1.32% |
| N#CCNC(=O)C1(NC(=O)c2csc(N3CCC(N4CCOCC4)CC3)n2)CCCCC1 | -8.26% |

| Compound | % Inhibition @ 10 uM |
| --- | --- |
| NS(=O)(=O)c1ccc(CCNc2ncnc3c2cnn3-c2ccc(Cl)cc2)cc1 | 2.95% |
| CCc1nn(C(CC)C(=O)NCc2ccc(Cl)cc2)c(=O)c2cc3occc3n12 (stereo not shown) | -2% |
| O=C(C1=C(O)C(=O)N(c2ccccn2)C1c1cccnc1)c1cccc(Br)c1 (stereo not shown) | -5.82% |
| CC(C)N1CCN(c2nc3c(N)ncnc3[nH]2)CC1 | -1.15% |
| Cc1cc2nsnc2c(S(=O)(=O)N2CCN(C)CC2)c1C | -1.33% |
| CC(C)(C)c1ccc(-c2nc3cc(N)ccc3o2)cc1 | -2.03% |
| O=C(C(NS(=O)(=O)c1cccc2nsnc12)c1ccccc1)N1CCc2ccccc2C1 (stereo not shown) | -3.23% |
| Cc1cc(C)n2nc(SCC(=O)N3CCN(c4ccccn4)CC3)nc2n1 | -4.29% |
| N#CCNC(=O)C(Cc1ccc(O)c(I)c1)NC(=O)c1ccc(N2CCOCC2)cc1 (stereo not shown) | -4.72% |
| CCc1nc(O)c2oc3ccccc3c2n1 | 2.46% |
| CCSc1ncc(Cl)c(C(=O)N(Cc2ccc(OC)c(OC)c2)C2CCS(=O)(=O)C2)n1 (stereo not shown) | 0.569% |
| COc1ccc(CCC(=O)Nc2cccc(Cl)c2)cc1 | -0.318% |
| O=S1(=O)N=C(Nc2ccc(Cl)c(C(F)(F)F)c2)c2ccccc21 | -2.05% |
| COc1ccc(NCc2c(Cl)cccc2Cl)cc1 | 3.48% |
| Cc1nc2c(-c3ccccc3)c(C)nn2c(O)c1Cc1ccccc1 | -0.339% |
| O=C(NCCc1ccc(Cl)cc1)C(CS(=O)(=O)Cc1ccccc1)N1Cc2ccccc2C1=O (stereo not shown) | -2.69% |
| COc1ccc(CN2CCN(Cc3cccn3C)CC2)c(OC)c1OC | -3.4% |
| Cc1cc(C)cc(NC(=O)CCCC(=O)Nc2cc(C)cc(C)c2)c1 | -0.68% |
| Cc1nc2cc(S(=O)(=O)N3CCC(C(=O)NCCC4=CCCCC4)CC3)ccc2n1C1CCCC1 | -0.0309% |
| COc1ccc2c(c1)C(S(=O)(=O)c1ccc(C)cc1)c1ccccc1O2 (stereo not shown) | -1.69% |
| c1ccc2sc(SCCCN3CCCCC3)nc2c1 | -3.93% |
| COc1ccc(/C(O)=C/C=N/Cc2ccc(C)cc2)cc1 | -0.105% |
| CCCCn1c(=O)cc(C)n(-c2ccccc2)c1=O | 1.19% |
| COc1cc(C=C2C(=O)NC(=O)NC2=O)cc(Cl)c1O | 2.7% |
| COc1ccc(-c2cc(C(F)(F)F)n3ncc(C(=O)N(C)Cc4cn(C)nc4C)c3n2)cc1OC | 3.9% |

| Compound | % Inhibition @ 10 uM |
| --- | --- |
| O=C(Cn1c(-c2cccs2)cc2ccccc21)NCc1cccc(F)c1 | -5.15% |
| Cc1ccc(NC(=O)c2c(O)nc3c(c2O)CCCC3)nc1 | 1.2% |
| Cc1nn(CC(=O)NCCCc2ccccc2)c(=O)c2c1sc1ccccc12 | -2.13% |
| CC12CN3CC(c4ccccc4)(CN(C1)C3c1ccco1)C2=O (stereo not shown) | -4.02% |
| COc1ccc(CNCCc2c[nH]c3ccc(OC)cc23)cc1 | -1.11% |
| Cc1coc2c1c(C)cc1oc(=O)c(CC(=O)NCc3ccc4c(c3)OCO4)c(C)c12 | 4.13% |
| CCCCn1c(CN2CCC(Cc3ccccc3)CC2)nc2c1c(=O)n(C)c(=O)n2C | -2.29% |
| Cn1nc(-c2ccccc2F)c2cc(C(=O)Nc3cccnc3Cl)sc21 | 1.24% |
| CCCC1=C(C(=O)OCC)C(c2cccc(F)c2)C(C#N)=C(N)O1 (stereo not shown) | 6.18% |
| CC(C)C[C@H](NC(=O)c1cnc2ccccc2n1)C(=O)NCC#N | -0.778% |
| O=C(O)CCNc1ccc(Br)cc1C(=O)O | 3.06% |
| O=C(NCCc1ccccc1)c1ccc2nc(N3CCN(Cc4ccccc4)CC3)ccc2n1 | -8.08% |
| COc1ccc(S(=O)(=O)N(C)Cc2ccccc2)cc1 | 0.526% |
| CCOC(=O)N1CCC(N2CCCN(C)CC2)CC1 | 1.43% |
| N#CCc1ccc(NC(=O)C2CCCCC2)cc1 | -14.8% |
| O=[N+]([O-])c1ccc(CN2CCc3ccccc3C2)cc1 | -2.03% |
| O=C1C(Sc2ccccc2)=C(O)c2cccc3cccc1c23 | 68.7% |
| c1ccc(COc2ccc(CNCc3cccs3)cc2)cc1 | -2.76% |
| O=S(=O)(c1cccc2nsnc12)N1CCOCC1 | 1.24% |
| CCOc1cc(C(=O)Nc2nc(C)cc(C)n2)cc(OCC)c1OCC | -3.41% |
| CCc1nn2c(=O)cc(COc3ccc(/C=C4/C(=N)N5C=CSC5=NC4=O)cc3OC)nc2s1 | 2.54% |
| CC(C)C[C@H](NC(=O)N(Cc1ccccc1)Cc1ccccc1)C(=O)NCC#N | -1.82% |
| CCC(C)NC(=O)c1ccc2c(c1)c(C)c(C)n2CC (stereo not shown) | 3.78% |
| CCCCOc1ccc(NC(=S)N2CCn3c4c(c5cc(C)ccc53)CCCC42)cc1 (stereo not shown) | -3.5% |
| C[n+]1cccc(C2CCCCN2C(=O)c2ccccc2)c1 (stereo not shown) | -2.87% |

| Compound | % Inhibition @ 10 uM |
| --- | --- |
| Cc1ccnc(SCC(=O)Nc2oc(-c3ccccc3)c(-c3ccccc3)c2C#N)n1 | 5.18% |
| C=CCNC(=O)C1CC(c2ccc(OC)cc2)=NO1 (stereo not shown) | -3.45% |
| CCCc1cc(O)nc(SCC(=O)NCCc2ccccc2)n1 | -0.386% |
| O=C(c1ccccc1)N1c2ccccc2C=CC1c1cc2ccccc2[nH]1 (stereo not shown) | 0.937% |
| CC(NC(=O)CCC(=O)N1Cc2ccccc2Oc2ncccc21)C12CC3CC(CC(C3)C1)C2 (stereo not shown) | 2.01% |
| Cc1cc(=O)n(C(C)C(=O)NCc2ccc3c(c2)OCO3)c2c1c(C)nn2-c1ccccc1 (stereo not shown) | 4.15% |
| CC(=O)Nc1nnc(-c2ccc(Cn3c(-c4cscn4)nc4ccccc43)cc2)s1 | -2.63% |
| OCCNc1ncnc2oc(-c3ccccc3)c(-c3ccccc3)c12 | 0.131% |
| O=C(NCc1ccccc1)C(=O)NCC1OCCc2ccccc21 (stereo not shown) | -1.52% |
| CCNc1nc(NCC)n2c(SCC(=O)c3ccccc3)nnc2n1 | -1.48% |
| Cc1cc(-c2ccc(C)c(S(=O)(=O)NCCCN(Cc3ccccc3)C(C)C)c2)on1 | 2.74% |
| Cc1ccc(CNC(=O)C2CCC(C/N=c3/c(N4CCOCC4)c(O)c3=O)CC2)cc1 (stereo not shown) | -2.17% |
| CCC1CCCN1Cn1cnc2c3cc(OC)ccc3nc-2c1O (stereo not shown) | -3.52% |
| CCS(=O)(=O)c1nc(S(=O)(=O)c2ccc(C)cc2)c(NCCC(C)C)s1 | -4.04% |
| O=C(Cn1ccc2cc(S(=O)(=O)N3CCCC3)ccc21)NCCCc1ccccc1 | -1.45% |
| CCOc1ccc(C(=O)N2CCN(c3ccccc3OCC)CC2)cc1 | -0.598% |
| COc1cccc(/C=C(\C#N)c2nn(CCO)c(N)c2C#N)c1OCc1ccccc1Cl | 4.95% |
| COc1ccc2nc(NC(=O)c3nc(S(=O)(=O)Cc4ccc(F)cc4)ncc3Cl)sc2c1 | -0.946% |
| Cc1ccccc1Cn1c(C)c(CNC(C)CCc2ccccc2)c(C(=O)O)c1C (stereo not shown) | -3.67% |
| CCN1CCCC1CNc1ncnc2c1cnn2-c1ccc(C)cc1 (stereo not shown) | 0.593% |
| COc1ccc(/C=C/c2cccc[n+]2C)c(OC)c1OC | 3.65% |
| O=C1NC(NS(=O)(=O)c2ccccc2)(C(F)(F)F)C(=O)N1Cc1ccco1 (stereo not shown) | 3.54% |
| Cn1c(=O)[nH]c(=O)c2c1ncn2CC(O)CO (stereo not shown) | 3.74% |
| CSC1=NC2(CCN(S(=O)(=O)c3ccc(C)cc3)CC2)N=C1c1ccc(Cl)cc1 | -2.31% |
| O=C(c1ccc(NS(=O)(=O)c2cccc(C(F)(F)F)c2)cc1)N1CCCC1 | -1.6% |
